# Laboratory results from PubChem BioAssay AID1345082 (National Center for Advancing Translational Sciences (NCATS), 2018).
# The campaign covered roughly 94,000 compounds. About 4,000 (4.3%) were called active. Inconclusive means that the source gave no clear call. Such entries were picked first, then a sample of the others. The call rests on the fitted dose curve; in most records, active means well fitted inhibition curve with a large enough effect; inconclusive means small, poorly fitted or top-dose-only effect; inactive means no such curve, though single readings can be large or run the other way. Potencies of inconclusive entries are doubtful fits and often do not repeat.
# Assay: Cytotoxic Profiling in NIH 3T3 Cell Line of Diverse Libraries Using Quantitative High-Throughput Screening; further: nearly all actives have a fitted effect of over 55% in size
# Conditions: NIH 3T3 viability, CellTiter-Glo ATP luminescence, 48-72 h; series mostly up to 96.7 µM
# Outline: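 ATP-dependent luminescence (CellTiter-Glo) served as the viability signal for NIH 3T3 cells treated with compound for 48 or 72 hr at 37 °C.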
# Potency means the concentration at half of the fitted maximal effect; tags describe the fitted curve by direction and shape.
row,Structure (SMILES),Potency
1,Cn1cc(-c2cc(=O)c3ccnc(-c4cccc5[nH]ccc45)c3o2)cn1,"inconclusive: 8.91 µM [inhibitor, full curve, poor fit]"
2,CCC(c1cccnc1)N(C)C(=O)C1CCN(C(=O)C2CCCC2)CC1 (stereo not given),"inconclusive: 63.1 µM [inhibitor, partial curve, poor fit]"
3,COCCn1c2c(c(=O)n1-c1ccccc1)CCN(C(=O)COc1ccccc1)C2,"inconclusive: 100 µM [inhibitor, partial curve, poor fit]"
4,O=C1NCCCCCCN(Cc2ccccc2)[C@H]2CCC[C@@H]12,"inconclusive: 79.4 µM [inhibitor, single point]"
5,COC(=O)N1CCc2nc(C)nc(-c3ccc(Cl)cc3)c2CC1,inactive
6,CCOc1ccc(CC(=O)N2CCN(c3cc(-c4ccccc4)[nH]n3)CC2)cc1,"inconclusive: 44.7 µM [inhibitor, partial curve]"
7,O=C1OC[C@@H]2CCN(Cc3cccc(Cl)c3)Cc3ccc(F)cc3N12,"inconclusive: 70.8 µM [inhibitor, partial curve, poor fit]"
8,CN1C(=O)C(CC(=O)NCc2noc(-c3c(F)cccc3F)n2)N(C)C1=O (stereo not given),inactive
9,Cc1cccc(C(=O)N2CCC(Cc3nc(C(C)C)no3)CC2)c1,"inconclusive: 28.2 µM [inhibitor, partial curve, poor fit]"
10,COCCn1c(C)cc(C(=O)N2CCC3(CC2)CC(C(=O)N2CCOCC2)N(C)C3)c1C (stereo not given),inactive
11,Cc1cnc(NC(=O)c2ccc3c(c2)OCCN(CCC(F)(F)F)C3)s1,"inconclusive: 22.4 µM [inhibitor, full curve, poor fit]"
12,O=C(NCC1CN(Cc2ccncc2Cl)CC12CN(c1ccccc1)C2)C1CCOCC1 (stereo not given),"inconclusive: 50.1 µM [inhibitor, partial curve, poor fit]"
13,CC(C)NC(=O)c1ccc(-c2ccc(N3CCCCCC3)nc2)cc1,"inconclusive: 50.1 µM [inhibitor, partial curve, poor fit]"
14,COc1ccc(Cc2nnc3ccc(C(=O)NCCCc4ccccc4)cn23)cc1,"inconclusive: 50.1 µM [inhibitor, partial curve, poor fit]"
15,Cc1ccc(-c2[nH]ncc2CN2C[C@@H](Oc3ccccc3)C[C@@H]2C(=O)N2CCOCC2)cc1,inactive
16,COc1ccc(C(=O)N(C)C2CCCc3ccccc32)cc1 (stereo not given),"inconclusive: 89.1 µM [inhibitor, partial curve, poor fit]"
17,O=C(CN1C(=O)NC(c2ccccc2Cl)C2=C1COC2=O)Nc1ccc(C(F)(F)F)cc1 (stereo not given),"inconclusive: 50.1 µM [inhibitor, partial curve, poor fit]"
18,COc1ccc(-c2ccc(C(=O)N3CCN(C(=O)NC4CCCC4)CC3)cc2)nn1,inactive
19,Cc1ccccc1[C@H]1C[C@@H](O)[C@@H](O)[C@@H]1NS(=O)(=O)c1ccc(C(F)(F)F)cc1,inactive
20,Cc1ccc2c(C)c(C(=O)N3CC(OCc4ccccc4F)C3)oc2c1,"inconclusive: 89.1 µM [inhibitor, single point]"

row,Structure (SMILES),Potency
1,O=C(NC1CCCCC1)c1cc(-c2ccc(F)cc2)c2nncn2n1,"inconclusive: 28.2 µM [inhibitor, full curve, poor fit]"
2,O=C(c1ccc(Cl)cc1)N1CC2(CCCN2CC2CCCCC2)Cc2ccccc21 (stereo not given),"inconclusive: 50.1 µM [inhibitor, partial curve, poor fit]"
3,COc1cccc([S+](=O)([O-])N2CCC3(C2)C(=NC2CCCC2)NC(=O)N3c2cc(F)cc(F)c2)c1 (stereo not given),"inconclusive: 70.8 µM [inhibitor, single point]"
4,COc1ccccc1-c1cc2c(ccn2C)c(C(=O)NCC2CCOCC2)n1,"inconclusive: 56.2 µM [inhibitor, partial curve, poor fit]"
5,COc1ccc(-c2cc(N3CCCN(C(=O)Cc4ccccc4Cl)CC3)n[nH]2)cc1,"inconclusive: 50.1 µM [inhibitor, partial curve, poor fit]"
6,O=C(c1cccc(F)c1)N1CCCC(c2noc(COc3ccccc3F)n2)C1 (stereo not given),"inconclusive: 44.7 µM [inhibitor, partial curve, poor fit]"
7,COc1ccccc1CCC(=O)N1C[C@H](c2nc(-c3cccnc3)no2)[C@@H](C)C1,inactive
8,CC(C)c1ccc(CNC(=O)c2cc3n(n2)CC(c2ccc(Cl)cc2)OC3)cc1 (stereo not given),active: 28.2 µM
9,Cc1ccc(C#N)c(NCc2cccnc2N2CCN(c3ccccn3)CC2)n1,"inconclusive: 56.2 µM [inhibitor, partial curve, poor fit]"
10,O=C(NCCCc1ccccc1)c1cn2cc(-c3ccccc3)sc2n1,inactive
11,COc1ccc(OC)c(-c2n[nH]c3c2CC(=O)N(Cc2ccccc2)C3)c1,"inconclusive: 25.1 µM [inhibitor, full curve]"
12,CC(C)N1C(=O)C(CC(=O)Nc2cccc(OC(F)(F)F)c2)=C2CCCCC21 (stereo not given),"inconclusive: 44.7 µM [inhibitor, partial curve, poor fit]"
13,O=C(Nc1ccc(Oc2ccccc2)cc1)O[C@@H]1CO[C@H]2[C@@H]1OC[C@@H]2NS(=O)(=O)c1cccs1,"inconclusive: 79.4 µM [inhibitor, partial curve, poor fit]"
14,CC(C)=CCn1c(-c2ccc(F)cc2)cn2cc(C(=O)N3CCCCC3)nc2c1=O,"inconclusive: 63.1 µM [inhibitor, partial curve, poor fit]"
15,COc1ccc([C@H]2C[C@@H](O)[C@@H](O)[C@@H]2NCc2cnn(C)c2)cc1,inactive
16,Cc1ccc(NC(=O)CN2C(=O)NC3(CCC(C)CC3)C2=O)cc1F (stereo not given),"inconclusive: 31.6 µM [inhibitor, partial curve, poor fit]"
17,COCCNc1ccc2nnc(C)n2n1,inactive
18,COc1ccc2nc3n(c2c1)[C@@H](CNC1CCCCC1)COC3,active: 39.8 µM
19,O=C(C1CCCN1C(=O)c1ccccc1F)N1CCC(N2CCOCC2=O)CC1 (stereo not given),inactive
20,O=C(Cc1cccc(Cl)c1)N1CCc2c(n(Cc3ccccc3)n(-c3ccccc3)c2=O)C1,"inconclusive: 70.8 µM [inhibitor, single point]"
